From the supplement of paper PMC3334620
The full ranking holds about 33,000 sequences; the median of “E-score (-0.5 to 0.5)” is about -0.017, and the highest 2% start at about 0.3. The list shows a part of the results.

molecular target: T1, Sut1 (UniProt P53032); test: PBM E-score (8-mer binding enrichment) (E-score (-0.5 to 0.5)); higher = stronger / more preferred TF binding; most listed sequences are background and not binding sites; settings: protein concentration: 200 nM; construct: GST-full length
T1 sequence: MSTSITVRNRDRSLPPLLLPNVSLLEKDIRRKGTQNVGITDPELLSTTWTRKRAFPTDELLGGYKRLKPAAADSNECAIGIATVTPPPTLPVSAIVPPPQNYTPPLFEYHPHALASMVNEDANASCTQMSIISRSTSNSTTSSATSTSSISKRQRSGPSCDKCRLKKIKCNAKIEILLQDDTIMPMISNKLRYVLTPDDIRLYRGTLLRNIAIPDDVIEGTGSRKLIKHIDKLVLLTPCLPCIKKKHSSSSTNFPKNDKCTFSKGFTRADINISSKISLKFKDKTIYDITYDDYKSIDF
Experimental: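 Universal 'all 10-mer' protein binding microarrays (Agilent AMADID 015681) probed with GST-tagged S. cerevisiae TFs (full-length or DBD) made by in vitro transcription/translation (PURExpress), about 100-200 nM. Bound TF was detected with fluorescent anti-GST. Each ungapped 8-mer (which stands for itself and its reverse complement) is scored by the PBM enrichment score (E-score), a modified Wilcoxon-Mann-Whitney statistic from -0.5 to +0.5, computed with the Universal PBM Analysis Suite. Scale: above 0.35 generally sequence-specific binding.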

| Sequence | PBM E-score |
| --- | --- |
| CCTGCCTA | -0.0979 |
| AGTTGTTG | 0.135 |
| CAGAGCGG | 0.0194 |
| CCCGTGTA | 0.0488 |
| CCACGGAC | 0.202 |
| CGAGCCAA | -0.0278 |
| GTCGCCTA | -0.116 |
| AGCGAGCA | -0.0935 |
| AATACGCA | 0.0344 |
| ACGCGGGC | -0.143 |
| AGGTATTC | 0.133 |
| CTCGCTCC | -0.119 |
| AAATCAAC | 0.0897 |
| ACACCAGG | -0.229 |
| CGATAATC | 0.0974 |
| ACGTCACC | -0.0655 |
| CAAGTCCC | -0.162 |
| GTGGGACA | -0.26 |
| ATGTCCAC | 0.0574 |
| ATCCTATA | 0.195 |
| CACTGAAA | 0.116 |
| GACCGTAC | -0.259 |
| CATAGCCA | -0.0744 |
| AGTCGCTA | -0.145 |
| CTAGGCCC | -0.108 |

| Sequence | PBM E-score |
| --- | --- |
| ACCTTCAC | -0.166 |
| ATATTATC | 0.223 |
| GCAAGGGA | -0.24 |
| GATTACAC | 0.0955 |
| AGCGGGTG | -0.281 |
| ATAGCACC | -0.101 |
| CGCCATAG | -0.152 |
| CAGAGTCG | -0.00687 |
| CAGCATAG | -0.0608 |
| ATGTAAAG | 0.0933 |
| AGGTCTTA | -0.0325 |
| ACGCAATG | -0.195 |
| CGGCCATA | -0.19 |
| CACGGTGA | -0.0232 |
| CTCGGCGC | 0.107 |
| GAGACCTC | -0.0192 |
| ACACACGC | -0.0881 |
| AACCGTGA | -0.0718 |
| ACCTCGCA | -0.0723 |
| AACAGCAA | 0.151 |
| CGCCAAGC | -0.0568 |
| AAGAGACG | -0.0793 |
| AGTACGCA | -0.0353 |
| CGGCTCTA | 0.0674 |
| CAGACTAA | -0.0981 |

| Sequence | PBM E-score |
| --- | --- |
| ATGTACCG | 0.129 |
| AAGGAGTG | -0.0821 |
| ACCAATAT | 0.246 |
| CTTACCCC | -0.02 |
| ACTTGTTG | -0.0742 |
| CTCAGAAA | -0.0405 |
| ATTATGGG | 0.00879 |
| ACTTCTGC | -0.0328 |
| CATGACGC | -0.171 |
| AAGGAGGC | -0.285 |
| ATAGAATA | 0.276 |
| CAAGACCA | -0.215 |
| CCCCCTCG | -0.309 |
| GTCTGCTA | 0.0584 |
| AGAGCAAA | 0.0178 |
| CCAAGAGG | -0.239 |
| CAGGAGAG | -0.199 |
| AGGGTGTC | -0.0588 |
| AGAGATAC | 0.0698 |
| AAGATATA | 0.269 |
| ATCTATCA | 0.0706 |
| CCTGTGTA | 0.0463 |
| CTGCAACA | 0.0195 |
| AATACTAT | 0.2 |
| CCCTCGAC | -0.327 |

| Sequence | PBM E-score |
| --- | --- |
| ACCCGTAA | -0.0581 |
| CGCGGGGA | -0.00923 |
| GTACGTAC | -0.203 |
| GCAAAACA | 0.0109 |
| GTCATTCA | 0.0766 |
| ATGACAAG | 0.0389 |
| GACTTGGC | -0.0784 |
| GAGCCTTA | 0.038 |
| CGTCGGCC | -0.174 |
| TTACTGAA | 0.142 |
| GTACACGA | -0.101 |
| CCGTATGA | 0.175 |
| ATAGATAC | 0.107 |
| CGCGCTGA | -0.116 |
| AGCAGTCC | -0.0327 |
| GACATTCA | 0.132 |
| GACAAATC | 0.0726 |
| CTAAGACA | -0.155 |
| AGGCCCTG | -0.302 |
| CCGGTTTC | 0.0671 |
| GAAAAAAA | 0.225 |
| CAAAAGGG | 0.127 |
| TCTGCTCA | -0.183 |
| GAAAAGAC | 0.154 |
| CGCCTTAC | -0.137 |

| Sequence | PBM E-score |
| --- | --- |
| GAAATGCA | 0.177 |
| GCGCTGCC | -0.266 |
| CAATCGAG | -0.309 |
| CATTCCCC | 0.0871 |
| ACCATGTC | 0.0433 |
| CGGTTTTA | 0.0984 |
| CCTAAGCA | -0.0741 |
| CTGCTATA | 0.126 |
| GCGTGACA | -0.0732 |
| CGCTGGAA | 0.00423 |
| GGAAGTAA | 0.123 |
| CCGAATTC | 0.212 |
| GACATGAC | -0.194 |
| GGTAATTA | 0.201 |
| CGACGGCA | -0.283 |
| ATCACGGG | -0.0946 |
| AAGCTCTA | -0.0336 |
| GAAGCTGA | 0.0675 |
| CACTACGA | -0.0264 |
| GGATTAGA | 0.0186 |
| AGATAACG | 0.157 |
| AGTTTTTG | 0.28 |
| GATTTACA | 0.187 |
| GCACCGAC | -0.0581 |
| ACGTTGCT | -0.0587 |

| Sequence | PBM E-score |
| --- | --- |
| CACTGTAC | -0.112 |
| CATAATGC | 0.00682 |
| GGCAGGAC | -0.36 |
| GAACGACA | -0.0146 |
| GCCTCCCA | -0.219 |
| CGTTACCA | -0.0543 |
| CTTATTTC | 0.207 |
| ATTACTTA | 0.327 |
| CCGTACCA | 0.134 |
| CTAAACAG | -0.0773 |
| CCCCGACG | 0.0421 |
| CGGTGACA | 0.0501 |
| AACATGTG | 0.128 |
| CATAGCAC | 0.051 |
| AACCCGCG | -0.0758 |
| CTAAAGAG | -0.00543 |
| CTAGACGC | -0.0143 |
| GAATCATA | 0.154 |
| AAAAGTGC | 0.0634 |
| CATCACTA | 0.132 |
| GTCATAAC | 0.00303 |
| AGGCCAGA | -0.0679 |
| CCGGTTTA | 0.0276 |
| CCACCGGG | -0.0405 |
| CATTTAAA | 0.226 |

| Sequence | PBM E-score |
| --- | --- |
| AGATCATA | 0.155 |
| CCGCAAGA | 0.06 |
| ACAGAAAA | 0.00533 |
| AAACTCCT | 0.016 |
| AATATAGA | 0.166 |
| AGGTGCAC | -0.143 |
| AAGTTTAT | 0.219 |
| GCATAGCA | -0.144 |
| GACCTTGC | -0.163 |
| GGGGTCTA | 0.03 |
| GTATCCCA | -0.144 |
| CACCCATG | -0.131 |
| AAAGGCAA | 0.191 |
| ATTCGCAA | 0.178 |
| CACTACTA | 0.0443 |
| CGAATGAC | 0.117 |
| GTAAAGAA | 0.21 |
| CATTTAAG | 0.168 |
| CGTAGCTC | 0.112 |
| AAGAAGGC | -0.133 |
| ACCGTTAC | -0.0733 |
| CACTCTAA | 0.0202 |
